In the supplement of paper PMC10037445:
In all, about 2,900 compounds were measured (“IRF Lucia reporter activity, fold change vs agonist alone”: median about 0.9, highest 2% from about 2.8 on). The list shows a part of the results.

What was measured:
RAW-Dual [1] = experiment: IRF Lucia reporter activity, fold change vs agonist alone; cytotoxicity flag (confluency mask): not cytotoxic; higher = enhanced IRF activity
Procedure, shortened: (§1)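 Cytotoxic wells were those whose IncuCyte confluency was below 70% of agonist controls in both mask sets. The cells were RAW-Dual macrophages at 50,000 cells/well in DMEM on 384-well plates, dosed with 50 nL of library stock by pin tool, stimulated with a PRR agonist 1 h later, and kept at 37 °C, 5% CO2 for 20 hours. IRF and NF-κB reporter activity, as fold change over agonist-alone wells, came from supernatant read by QuantiLuc luminescence and QuantiBlue absorbance, respectively.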

RAW-Dual [2] = experiment: IRF Lucia reporter activity, fold change vs agonist alone; higher = enhanced IRF activity; conditions: agonist: MPLA (TLR4) […]
Procedure, shortened: as §1

RAW-Dual [3] = experiment: IRF Lucia reporter activity, fold change vs agonist alone; cytotoxicity flag (confluency mask): cytotoxic (confluency <70% of control); higher = enhanced IRF activity
Procedure, shortened: as §1

[4] = agonist: 3'3'-cGAMP (STING) 10 ug/mL
[5] = library stock concentration (final ~1000-fold dilution): 10 mM, cytotoxicity flag (confluency mask): not cytotoxic
[6] = library stock concentration (final ~1000-fold dilution): 10 mM, cytotoxicity flag (confluency mask): cytotoxic (confluency <70% of control)

NS(=O)(=O)C#Cc1ccccc1 (library stock concentration (final ~1000-fold dilution): 10 mM) was tested. Which “IRF Lucia reporter activity” value (RAW-Dual [1]; [4]) did it give?
The value was 0.0435.

What about the “IRF Lucia reporter activity” value (RAW-Dual [1]; agonist: LPS (TLR4) 0.1 ug/mL) of the same molecule?
Its value is 0.0196.

NS(=O)(=O)C#Cc1ccccc1 was tested. Which “IRF Lucia reporter activity” value (RAW-Dual [2]; [5]) did it give?
Its value is 0.0867.

Which results are given for C=CC(=O)Nc1cccc(Oc2nc(Nc3ccc(N4CCN(C)CC4)c(F)c3)nc3[nH]ccc23)c1 (library stock concentration (final ~1000-fold dilution): 10 mM)?
IRF Lucia reporter activity (RAW-Dual [3]; [4]): 0.0177; IRF Lucia reporter activity (RAW-Dual [3]; agonist: LPS (TLR4) 0.1 ug/mL): 0.0137

CC(C)(O)CNc1nc(Nc2ccnc(C(F)(F)F)c2)nc(-c2cccc(C(F)(F)F)n2)n1 (library stock concentration (final ~1000-fold dilution): 10 mM) was tested. Which “IRF Lucia reporter activity” value (RAW-Dual [1]; [4]) did it give?
The value was 1.

And the “IRF Lucia reporter activity” value (RAW-Dual [1]; agonist: LPS (TLR4) 0.1 ug/mL)?
The value was 1.29.

With NC1CCCN(c2c(/C=C3\SC(=O)NC3=O)cccc2-c2ccccc2)C1 (configuration not stated) as the molecule, how does the “IRF Lucia reporter activity” value (RAW-Dual [2]; [5]) read?
The value was 1.1.

Which “IRF Lucia reporter activity” value (RAW-Dual [1]; [4]) does the source give for NC1CCCN(c2c(/C=C3\SC(=O)NC3=O)cccc2-c2ccccc2)C1 (configuration not stated) (library stock concentration (final ~1000-fold dilution): 10 mM) here?
Its value is 0.968.

What about the “IRF Lucia reporter activity” value (RAW-Dual [1]; agonist: LPS (TLR4) 0.1 ug/mL) of the same molecule?
The value was 1.16.

Which “IRF Lucia reporter activity” value (RAW-Dual [3]; [4]) does the source give for CC(C)(C)c1cc(NC(=O)Nc2ccc(Oc3ccnc4[nH]c(=O)cnc34)cc2F)n(-c2ccccc2)n1 (library stock concentration (final ~1000-fold dilution): 10 mM) here?
Its value is 0.0165.

And the “IRF Lucia reporter activity” value (RAW-Dual [3]; agonist: LPS (TLR4) 0.1 ug/mL)?
The value was 0.0196.

How did the “IRF Lucia reporter activity” value (RAW-Dual [1]; [4]) turn out when O=C(O)CCCN1CCC(OC(c2ccc(Cl)cc2)c2ccccn2)CC1 (configuration not stated) (library stock concentration (final ~1000-fold dilution): 10 mM) was run?
The value was 1.04.

What about the “IRF Lucia reporter activity” value (RAW-Dual [1]; agonist: LPS (TLR4) 0.1 ug/mL) of the same molecule?
The value was 0.609.

For O=C(O)CCCN1CCC(OC(c2ccc(Cl)cc2)c2ccccn2)CC1 (configuration not stated), which “IRF Lucia reporter activity” value (RAW-Dual [2]; [5]) is on record?
The value was 1.04.

With COC(=O)C1=C(C)NC(C)=C(C(=O)OCCN2CCN(C(c3ccccc3)c3ccccc3)CC2)C1c1cccc([N+](=O)[O-])c1.Cl.Cl (configuration not stated) as the molecule, how does the “IRF Lucia reporter activity” value (RAW-Dual [2]; [5]) read?
The value was 0.781.

Which “IRF Lucia reporter activity” value (RAW-Dual [1]; [4]) does the source give for COC(=O)C1=C(C)NC(C)=C(C(=O)OCCN2CCN(C(c3ccccc3)c3ccccc3)CC2)C1c1cccc([N+](=O)[O-])c1.Cl.Cl (configuration not stated) (library stock concentration (final ~1000-fold dilution): 10 mM) here?
The value was 0.103.

What about the “IRF Lucia reporter activity” value (RAW-Dual [1]; agonist: LPS (TLR4) 0.1 ug/mL) of the same molecule?
Its value is 0.852.

Which “IRF Lucia reporter activity” value (RAW-Dual [1]; [4]) does the source give for O=c1cc(N2CCOCC2)oc2c(-c3ccc4c(c3)OCCO4)csc12 (library stock concentration (final ~1000-fold dilution): 10 mM) here?
Its value is 0.12.

What about the “IRF Lucia reporter activity” value (RAW-Dual [1]; agonist: LPS (TLR4) 0.1 ug/mL) of the same molecule?
Its value is 0.269.

How did the “IRF Lucia reporter activity” value (RAW-Dual [2]; [5]) turn out when COC(=O)C1C(O)CCC2CN3CCc4c([nH]c5ccccc45)C3CC21.Cl (configuration not stated) was run?
Its value is 0.921.

COC(=O)C1C(O)CCC2CN3CCc4c([nH]c5ccccc45)C3CC21.Cl (configuration not stated) (library stock concentration (final ~1000-fold dilution): 10 mM) was tested. Which “IRF Lucia reporter activity” value (RAW-Dual [1]; [4]) did it give?
Its value is 0.963.

And the “IRF Lucia reporter activity” value (RAW-Dual [1]; agonist: LPS (TLR4) 0.1 ug/mL)?
Its value is 1.17.

With CCOc1ccc(Cc2cc(C34OCC(CO)(O3)C(O)C(O)C4O)ccc2Cl)cc1 (configuration not stated) as the molecule, how does the “IRF Lucia reporter activity” value (RAW-Dual [2]; [5]) read?
Its value is 1.14.

Which “IRF Lucia reporter activity” value (RAW-Dual [1]; [4]) does the source give for CCOc1ccc(Cc2cc(C34OCC(CO)(O3)C(O)C(O)C4O)ccc2Cl)cc1 (configuration not stated) (library stock concentration (final ~1000-fold dilution): 10 mM) here?
Its value is 1.09.

What about the “IRF Lucia reporter activity” value (RAW-Dual [1]; agonist: LPS (TLR4) 0.1 ug/mL) of the same molecule?
Its value is 1.33.

How did the “IRF Lucia reporter activity” value (RAW-Dual [3]; [4]) turn out when CC(C)CC(=O)Nc1cncc(-c2ccc3[nH]nc(-c4nc5cncc(-c6cccc(F)c6)c5[nH]4)c3c2)c1 (library stock concentration (final ~1000-fold dilution): 10 mM) was run?
The value was 0.0977.

And the “IRF Lucia reporter activity” value (RAW-Dual [3]; agonist: LPS (TLR4) 0.1 ug/mL)?
The value was 0.271.

With Nc1ncnc2c1c(I)cn2C1OC(CO)C(O)C1O (configuration not stated) (library stock concentration (final ~1000-fold dilution): 10 mM) as the molecule, how does the “IRF Lucia reporter activity” value (RAW-Dual [3]; [4]) read?
The value was 0.00867.

And the “IRF Lucia reporter activity” value (RAW-Dual [3]; agonist: LPS (TLR4) 0.1 ug/mL)?
The value was 0.015.

Which “IRF Lucia reporter activity” value (RAW-Dual [2]; [6]) does the source give for CC(=O)Oc1cc(C)c(OC(C)=O)c2ccccc12 here?
Its value is 0.0702.

Which results are given for CC(=O)Oc1cc(C)c(OC(C)=O)c2ccccc12 (library stock concentration (final ~1000-fold dilution): 10 mM)?
IRF Lucia reporter activity (RAW-Dual [3]; [4]): 0.0215; IRF Lucia reporter activity (RAW-Dual [3]; agonist: LPS (TLR4) 0.1 ug/mL): 0.0477

COc1cc2ncnc(Nc3ccc(F)c(Cl)c3)c2cc1NC(=O)/C=C/CN1CCCCC1 was tested. Which “IRF Lucia reporter activity” value (RAW-Dual [2]; [6]) did it give?
Its value is 0.43.

For COc1cc2ncnc(Nc3ccc(F)c(Cl)c3)c2cc1NC(=O)/C=C/CN1CCCCC1 (library stock concentration (final ~1000-fold dilution): 10 mM), which “IRF Lucia reporter activity” value (RAW-Dual [3]; [4]) is on record?
Its value is 0.441.

And the “IRF Lucia reporter activity” value (RAW-Dual [3]; agonist: LPS (TLR4) 0.1 ug/mL)?
The value was 0.0146.

With CC1=CC(=O)c2ccccc2C1=O (library stock concentration (final ~1000-fold dilution): 10 mM) as the molecule, how does the “IRF Lucia reporter activity” value (RAW-Dual [3]; [4]) read?
Its value is 0.0131.

And the “IRF Lucia reporter activity” value (RAW-Dual [3]; agonist: LPS (TLR4) 0.1 ug/mL)?
Its value is 0.0149.

For CC1=CC(=O)c2ccccc2C1=O, which “IRF Lucia reporter activity” value (RAW-Dual [2]; [6]) is on record?
The value was 0.0137.

N[C@@H](C=O)[C@@H](O)[C@H](O)[C@H](O)CO (library stock concentration (final ~1000-fold dilution): 10 mM) was tested. Which “IRF Lucia reporter activity” value (RAW-Dual [1]; [4]) did it give?
Its value is 0.749.

What about the “IRF Lucia reporter activity” value (RAW-Dual [1]; agonist: LPS (TLR4) 0.1 ug/mL) of the same molecule?
Its value is 0.775.

Which “IRF Lucia reporter activity” value (RAW-Dual [2]; library stock concentration (final ~1000-fold dilution): 10 mM water, cytotoxicity flag (confluency mask): not cytotoxic) does the source give for CC(O)C1C(=O)N2C(C(=O)O)=C(SCCNC=N)CC12.O (configuration not stated) here?
Its value is 1.37.

For CC(O)C1C(=O)N2C(C(=O)O)=C(SCCNC=N)CC12.O (configuration not stated) (library stock concentration (final ~1000-fold dilution): 10 mM water), which “IRF Lucia reporter activity” value (RAW-Dual [1]; [4]) is on record?
Its value is 1.2.

What about the “IRF Lucia reporter activity” value (RAW-Dual [1]; agonist: LPS (TLR4) 0.1 ug/mL) of the same molecule?
The value was 0.897.

How did the “IRF Lucia reporter activity” value (RAW-Dual [1]; [4]) turn out when CCCc1nc2c(C)cc(-c3nc4ccccc4n3C)cc2n1Cc1ccc(-c2ccccc2C(=O)O)cc1 (library stock concentration (final ~1000-fold dilution): 10 mM) was run?
Its value is 1.02.

And the “IRF Lucia reporter activity” value (RAW-Dual [1]; agonist: LPS (TLR4) 0.1 ug/mL)?
The value was 0.971.

CCCc1nc2c(C)cc(-c3nc4ccccc4n3C)cc2n1Cc1ccc(-c2ccccc2C(=O)O)cc1 was tested. Which “IRF Lucia reporter activity” value (RAW-Dual [2]; [5]) did it give?
Its value is 0.542.
